Experimental data published in PubChem BioAssay (NCI).
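Method: 48-hour compound exposure of cells in 96-well plates, five concentrations, linear interpolation of endpoints. Here, GI50 denotes the concentration required for 50% inhibition of growth. TGI denotes the concentration required for complete inhibition of growth.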

Test system: NCI-H322M lung
Assay: inhibition of tumour cell growth, NCI panel, 48 h

Structure (SMILES)	GI50	TGI
COc1cc2nc(Cl)nc(Nc3cccc(C4=Nc5c(N)nc(N)nc5NC(c5ccc(Cl)cc5)C4)c3)c2cc1OC (centres undefined)	2.93 µM	9.91 µM
COc1cc(OC)cc(C(=O)Nc2cccc(C#Cc3cccc4[nH]nc(N)c34)c2)c1	3.39 µM	24.3 µM
